Results published in publication PMC4336329 (PLoS ONE, 2015).
In all, about 310,000 compounds went through this assay and about 2,200 (0.71%) showed an effect of 50% or more. Effects have a minus sign here. The list shows a part of the results.

What follows are molecules tested against human ether-à-go-go-related gene (hERG) potassium channel (human, UniProt Q12809) (assay: primary screen, population patch clamp on CHO cells stably expressing hERG).
Sequence of human ether-à-go-go-related gene (hERG) potassium channel (Q12809 whole entry, looked up): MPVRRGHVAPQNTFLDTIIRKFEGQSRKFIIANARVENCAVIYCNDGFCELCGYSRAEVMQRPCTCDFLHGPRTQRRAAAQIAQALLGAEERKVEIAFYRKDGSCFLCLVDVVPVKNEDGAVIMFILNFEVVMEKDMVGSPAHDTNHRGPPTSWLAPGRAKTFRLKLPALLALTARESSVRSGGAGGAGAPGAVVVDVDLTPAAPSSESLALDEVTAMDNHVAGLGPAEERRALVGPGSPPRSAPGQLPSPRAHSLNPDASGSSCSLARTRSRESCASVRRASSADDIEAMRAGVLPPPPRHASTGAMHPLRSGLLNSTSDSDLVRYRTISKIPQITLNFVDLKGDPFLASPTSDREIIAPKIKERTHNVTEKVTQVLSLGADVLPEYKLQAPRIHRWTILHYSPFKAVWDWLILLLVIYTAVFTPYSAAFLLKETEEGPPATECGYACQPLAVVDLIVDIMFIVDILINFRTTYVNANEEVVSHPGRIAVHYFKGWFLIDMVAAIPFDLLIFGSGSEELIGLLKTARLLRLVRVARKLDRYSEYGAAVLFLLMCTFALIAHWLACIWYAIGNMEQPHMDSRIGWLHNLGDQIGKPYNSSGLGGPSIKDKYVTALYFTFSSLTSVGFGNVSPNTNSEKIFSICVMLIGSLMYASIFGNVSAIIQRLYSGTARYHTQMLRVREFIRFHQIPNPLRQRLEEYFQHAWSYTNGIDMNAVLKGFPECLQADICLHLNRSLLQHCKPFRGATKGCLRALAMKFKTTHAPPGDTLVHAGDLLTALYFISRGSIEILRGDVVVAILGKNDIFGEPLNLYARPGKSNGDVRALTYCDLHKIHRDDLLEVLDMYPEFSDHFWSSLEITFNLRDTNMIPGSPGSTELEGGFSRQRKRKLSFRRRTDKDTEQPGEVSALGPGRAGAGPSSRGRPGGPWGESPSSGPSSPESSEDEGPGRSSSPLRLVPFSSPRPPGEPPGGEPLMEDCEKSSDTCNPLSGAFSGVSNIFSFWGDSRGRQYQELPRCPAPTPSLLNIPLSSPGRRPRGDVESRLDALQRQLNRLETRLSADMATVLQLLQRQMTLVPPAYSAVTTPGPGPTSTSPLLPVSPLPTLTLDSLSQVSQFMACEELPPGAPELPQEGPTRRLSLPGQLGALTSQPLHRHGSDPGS

| Structure (SMILES) | hERG current change (%, negative = inhibition) at 1uM |
| --- | --- |
| COC(=O)CSC1=C(C#N)C(c2cccc(OC)c2)CC(=O)N1 (stereo not drawn) | 11.6% |
| Cc1ccc(NC(=O)c2cc3ccccc3o2)cc1Cl | 15.8% |
| Cn1nnnc1SCC(=O)NCCCc1ccccc1 | -7.14% |
| CN1C(=O)CSC1=NCC12CC3CC(CC(C3)C1)C2 | -2.87% |
| COc1ccc(-c2nn(-c3ccccc3)cc2C(=O)Nc2nc(CC(C)=O)ns2)cc1 | 13.6% |
| O=C(COc1ccccc1[N+](=O)[O-])Nc1cccc(S(=O)(=O)NC2=NCCCCC2)c1 | 18% |
| CCc1nnc(NC(=O)CCC(=O)N2CCN(Cc3ccc(C)cc3C)CC2)s1 | 7.6% |
| COc1ccc2ccccc2c1CNCc1ccccn1.Cl | 4.73% |
| COc1ccccc1NC(=O)CCC(=O)N(Cc1ccc(OC)c(OC)c1)c1nccs1 | 14.4% |
| CCOC(=O)c1c(NC(=O)c2nn(CC)cc2Br)sc2c1CCCCC2 | 11.4% |
| O=C(Cc1ccccc1)Nc1ccccc1C(=O)Nc1ccccc1 | 3.69% |
| Cc1cc(C)n(C(=O)Cc2cn3ccsc3n2)n1 | 4.06% |
| CCc1c(C)sc(NC(=O)c2ccc(Br)o2)c1C(=O)OC | 20.5% |
| COc1ccc(CNC(=O)CN2C(=O)NC(C)(c3ccc(Cl)cc3)C2=O)cc1 (stereo not drawn) | 6.2% |
| O=C(Nc1ccc(N2CCN(Cc3ccccc3)CC2)cc1)c1cccnc1 | 5.66% |
| O=c1c2[nH]c3ccccc3c2nc2n1CCCS2 | -2.85% |
| O=c1[nH]nc(Cc2ccc(-c3cccc(Cl)c3)o2)c2ccccc12 | 6.53% |
| Cn1c(=O)c2c(nc(SCC(=O)O)n2Cc2cccc(C(F)(F)F)c2)n(C)c1=O | -7.59% |
| COc1ccc(CC(=O)N2CCN(c3ccccc3OC)CC2)cc1 | 11.8% |
| COc1ccccc1CNC(=O)c1ccc(SC)cc1OC | -9.26% |
| COc1ccc(C)cc1NC(=O)CN1c2cccc3cccc(c23)S1(=O)=O | 9% |
| N/C(CC1CC1(Cl)Cl)=N\OC(=O)c1ccccc1 (stereo not drawn) | 9.57% |
| COc1ccccc1/C=C/CN1CCCC(CCC(=O)NCc2ccccc2F)C1 (stereo not drawn) | -24.8% |

| Structure (SMILES) | hERG current change (%, negative = inhibition) at 1uM |
| --- | --- |
| O=C(O)c1cccc(N/N=C/c2cn(-c3ccccc3)nc2-c2cccs2)c1 | 13.5% |
| Cc1ccc(C(=O)N2CCCC(C(=O)c3cc(F)ccc3F)C2)s1 (stereo not drawn) | 9.51% |
| CCCC(=O)Nc1nn(CC(C)C)c2nc3cc(C)ccc3cc12 | 11.7% |
| Cc1ccc(NC(=O)c2ccc(Nc3c([N+](=O)[O-])cc([N+](=O)[O-])cc3[N+](=O)[O-])cc2)cc1 | 13.1% |
| CCOc1ccc(N2Cc3ncccc3C2=O)cc1 | -11.6% |
| NNC(=O)c1[nH]c2ccc(Cl)cc2c1-c1ccccc1 | 8.54% |
| COc1cc(-c2nnc(COC(=O)c3cc(C)nc4ccc(C)cc34)o2)cc(OC)c1OC | 7.64% |
| COc1ccc(C(=O)NNC(=O)c2ccc3ccccc3n2)cc1 | -19.5% |
| COc1ccc(CCNC(=O)CN(CCc2ccccc2)S(C)(=O)=O)cc1OC | 13.9% |
| Cc1cc(=S)cc(C)n1CCCO | 2.89% |
| CCSc1ncc(Cl)c(C(=O)Nc2ccccc2)n1 | 7.25% |
| COc1ccc(Cl)cc1C(=O)NCCN1CCOCC1 | 13.1% |
| COc1ccc(C(=O)O/N=C2\CCS(=O)(=O)c3sccc32)cc1 | 10.4% |
| Cc1ccc(OCC(=O)Nc2cc(S(=O)(=O)N3CCCCC3)ccc2C)c([N+](=O)[O-])n1 | 10.1% |
| CCC(c1nnc(SCCNCCO)n1CCN1CCOCC1)N(C)C.O=C(O)C(=O)O (stereo not drawn) | 17.4% |
| CCN(C(=O)COC(=O)c1cccnc1Nc1cccc(C(F)(F)F)c1)C1CCS(=O)(=O)C1 (stereo not drawn) | 7.32% |
| COc1ccc(CCNC2=NCCS2)cc1 | 5.26% |
| Cc1ccc(N(Cc2ccccc2)C(=O)c2ccc(C)c(S(=O)(=O)N3CCOCC3)c2)cc1 | -4.53% |
| O=C(CNC(=O)c1ccc(Br)o1)NNC(=O)c1n[nH]c(=O)c2ccccc12 | 16.4% |
| O=c1c(Cc2ccccc2)c(O)ccn1CCc1cnc[nH]1 | 15.2% |
| O=C(O)c1cc(-c2ccc3ccccc3c2)nc2ccc(F)cc12 | 24.6% |
| CCC(=O)NC1(C(F)(F)F)C(=O)Nc2c1c(=O)n(C)c(=O)n2C (stereo not drawn) | 10.9% |
| CCn1cc(C(=O)NCc2ccco2)c(=O)c2cc(S(=O)(=O)N3CC(C)CC(C)C3)ccc21 (stereo not drawn) | 11.7% |

| Structure (SMILES) | hERG current change (%, negative = inhibition) at 1uM |
| --- | --- |
| COc1ccc(C(=O)COC(=O)Cn2[nH]c(=O)c3ccccc3c2=O)c(OC)c1 | 17.8% |
| COc1ccccc1N1CCN(/N=C/C=C\c2ccco2)CC1 | 6.12% |
| COC(=O)[C@@H](NC(=O)NC1CCCCC1C)C(C)C (stereo partly drawn) | 7.34% |
| CCOC(=O)C1CCCN(Cc2cn[nH]c2-c2ccc(F)cc2F)C1 (stereo not drawn) | -3.37% |
| COc1cc2ccccc2cc1C(=O)Nc1ccccc1N1CCN(S(C)(=O)=O)CC1 | 11.7% |
| O=C(c1ccccc1SCc1ccccc1)N1CCCCCC1 | 0.414% |
| CCOC(=O)c1cnc(SCC(=O)c2ccc(Cl)cc2)nc1N | 15.9% |
| CCOC(=O)CSC1=C(C#N)C(c2sccc2C)C(C(C)=O)=C(C)N1 (stereo not drawn) | 9.44% |
| CSc1ccccc1OCc1cc(C(=O)NCc2csc(C(C)C)n2)no1 | 8.25% |
| CCOC(=O)N1CCN(C(=O)CN(c2ccc(OC)c(OC)c2)S(C)(=O)=O)CC1 | -3.74% |
| Cc1ccc(CNC(=O)CCn2c(=O)oc3ccccc32)cc1 | 9.38% |
| CN1CCN(C(c2ccccc2)c2ccccc2)CC1.Cl | 10.8% |
| COc1ccccc1N1C(=O)c2ccc(C(=O)Nc3ccc(F)cc3)cc2C1=O | 6.32% |
| Cn1c(SCC(=O)Nc2ccc(NC(=O)c3ccccc3F)cc2)nnc1-c1ccncc1 | 14.9% |
| Cc1ccc(CNS(=O)(=O)c2cc3c(cc2C)N(C)CCO3)cc1 | 11.1% |
| Nc1nnc(-c2ccccc2[N+](=O)[O-])o1 | 7.34% |
| CC(C)c1ccc(/C=C(\NC(=O)c2ccccc2)C(=O)NCCN2CCOCC2)cc1 | -21.9% |
| COCCCNC(=O)COc1cc(C)c(Cl)c(C)c1 | 5.43% |
| CC(C)CN(C(=O)c1ccc(=O)n(C)n1)c1c(N)n(Cc2ccccc2)c(=O)[nH]c1=O | 8.25% |
| Nn1c(SCC(=O)Nc2cccnc2Cl)nnc1-c1ccccc1 | 8.94% |
| CCC1=C(OC(=O)N(CC)CC)N2C(=O)OC(=NCC(=O)OC)[C@]2(Cc2ccccc2)[C@H]2C1=CC[C@H]1C(=O)NC(=O)[C@H]12 | 12.2% |
| CCC(C)NCC(O)COCc1ccc(Cl)cc1.Cl (stereo not drawn) | 3.93% |
| CNc1cc(-n2nc(C)cc2-c2ccccc2)ncn1 | 15% |

| Structure (SMILES) | hERG current change (%, negative = inhibition) at 1uM |
| --- | --- |
| O=C(NCCNC(=O)c1ccc(F)cc1)c1ccc(F)cc1 | 4.44% |
| CCOP(=O)(c1ccccc1)C1(C#N)CC1 (stereo not drawn) | 13.2% |
| CCc1c(C#N)c(SCCC(=O)Nc2ccc(F)cc2)nc2c1C(=O)CC(C)(C)C2 | 9.81% |
| CC1CCC/C(=N\NC(=O)c2ccncc2)C1 (stereo not drawn) | 2.73% |
| COc1cccc(CNS(=O)(=O)c2c(C(=O)N3CCCCCC3)c(C)n(C)c2C)c1 | 7.52% |
| O=S(=O)(NCCSc1ccc(Cl)cc1)c1ccc2c(c1)OCCO2 | 4.16% |
| COCC(C)NC(=O)c1cc2cccc([N+](=O)[O-])c2[nH]1 (stereo not drawn) | 7.87% |
| COc1ccc(-n2c(SCC(=O)C(C)(C)C)nc3c(sc(=S)n3-c3ccccc3)c2=O)c(OC)c1 | 14.6% |
| CC1CN(C(=S)Nc2ccc(SC(F)F)cc2)CC(C)O1 (stereo not drawn) | -4.05% |
| CC(=O)C1C(c2ccco2)c2c(noc2C)CC1(C)O (stereo not drawn) | 1.18% |
| CC(C)C(=O)Nc1ccnc(-c2cccnc2)n1 | 2.24% |
| COc1cc(NC(=O)C(C)Oc2ccccc2)c(C(=O)O)cc1OC (stereo not drawn) | 9.7% |
| O=C(OCC(=O)N1CCCC1=O)c1nc(Cl)ccc1Cl | 11.9% |
| Cc1csc(NC(=O)c2nn(C)c(C)c2[N+](=O)[O-])n1 | 12.8% |
| COc1cc(Nc2nc3ccc(Cl)cc3n3cnnc23)cc(OC)c1OC | 14.1% |
| O=c1cc(/N=C/c2coc3cc(Br)ccc3c2=O)[nH]c(=S)[nH]1 | 16.6% |
| Cc1ccc(CSCC(=O)N2CCCC2)cc1 | 10.7% |
| CC(CCc1ccccc1)NC(=O)CSc1nc(N)cc(N)n1 (stereo not drawn) | 5.09% |
| CCc1nc(Sc2nc(C)cc(C)n2)c2oc3ccccc3c2n1 | 10.6% |
| Cn1nc(-c2ccccn2)nc2c(=O)n(C)c(=O)nc1-2 | 6.45% |
| C[C@H](NC(=O)C1CC(=O)N(c2ccc(F)cc2)C1)C(=O)N1CCCCC1 (stereo partly drawn) | 6.48% |
